Laboratory results published in PubChem BioAssay AID463173 (ICCB-Longwood Screening Facility, Harvard Medical School, 2010).
In all, about 52,000 compounds went through this assay and about 4,300 (8.3%) were called active. Cut-off read from the data, not from the text of the source: active = survival mostly below about 52% (no sharp cut-off); inactive = mostly above about 56%. The list shows a part of the results.

These compounds were tested on DeltatarO mutant (assay: growth inhibition of S. aureus wild type versus tarO mutant, primary screen, teichoic acid synthesis inhibitors, RN4220, OD600 (AID 463173)). Conditions: OD600, 18 h, stronger effect = lower value, screened at 18.75 µg/mL (by protocol).

| Compound | survival |
| --- | --- |
| Cc1ccc2nc(NC(=O)CSc3[nH]c(=O)ncc3C)sc2c1 | inactive: 102% |
| CCCCOc1ccc(C2c3c(oc4ccc(C)cc4c3=O)C(=O)N2CCCN(C)C)cc1OCC (stereo not drawn) | inactive: 88% |
| CC(=O)NCCNC(=O)CCCn1c(=O)[nH]c2ccsc2c1=O | inactive: 83% |
| COc1ccc(NC(=O)CN2CCC(c3nc4ccc(Cl)cc4[nH]3)CC2)c(OC)c1 | inactive: 69% |
| Cc1ccc(-n2c(SCc3ccccc3F)nc3[nH]ncc3c2=O)cc1Cl | inactive: 91% |
| O=C(Cn1nnc(-c2cccs2)n1)N1c2ccccc2CCc2ccccc21 | inactive: 85% |
| CCc1cccc(NC(=O)Cn2c(C(=O)OC)cc3sc(Cl)cc32)c1 | inactive: 69% |
| CCN(CC)CCNC(=O)C1CCN(C(=O)c2cnn(-c3ccccc3)c2-n2cccc2)CC1 | inactive: 92% |
| O=C(CN1C2=NCCN2c2ccccc21)c1ccc(O)cc1 | inactive: 99% |
| CCCCN(CCCNC(=O)c1cc(Nc2cccc(SC)c2)nc2ccccc12)Cc1ccccc1 | inactive: 83% |
| Cc1ccc(NC(=O)c2cc(S(=O)(=O)N3CCC4(CC3)OCCO4)ccc2F)cc1Cl | inactive: 66% |
| COC(=O)c1c(NC(C)=O)c2c3c(sc2n1Cc1cc(C)ccc1C)CCCC3 | inactive: 89% |
| CN(C)S(=O)(=O)N(CC(=O)NCCSCc1c(F)cccc1Cl)c1ccccc1 | inactive: 70% |
| CCOC(=O)c1ccccc1NC(=O)c1sc2nc3n(c(=O)c2c1C)CCCCC3 | active: 37% |
| CN(C)c1ncnc2c1ncn2C1OC(CO)C(O)C1O (stereo not drawn) | inactive: 75% |
| Cc1cccc(-n2c(C)cc(C(=O)C(=O)Nc3ccccc3F)c2C)c1C | inactive: 90% |
| CCCN1CCN(CCCNC(=O)c2cc3c(=O)n(CC)c4ccccc4c3s2)CC1 | inactive: 93% |
| Cc1ccc(S(=O)(=O)N2CCC(N3CCN(Cc4ccccc4)C(=O)C3=O)CC2)cc1C | inactive: 76% |
| CCN(CC)S(=O)(=O)c1cccc(C(=O)Nc2ccccc2C(=O)Nc2ccc(Cl)cc2)c1 | inactive: 83% |
| Cc1ccc(C)c(NS(=O)(=O)c2cc3c(cc2C)n(C)c(=O)c(=O)n3C)c1 | inactive: 101% |
| Cc1ccc(-n2c(/C=C/c3c(C)n(C)c4ccccc34)nc3ccccc3c2=O)cc1 | inactive: 70% |
| CCOC(=O)c1c(NC(=O)Cc2coc3cc(C)cc(C)c23)sc2c1CCC2 | inactive: 99% |

| Compound | survival |
| --- | --- |
| COCCN(CCOC)S(=O)(=O)c1ccc(C(=O)Nc2sc3c(c2C(=O)OC)CCN(C)C3)cc1 | inactive: 83% |
| CC(=O)c1ccc(NC(=O)c2cc(C)nn2-c2ccccc2)cc1 | inactive: 80% |
| CCOc1ccc2ncc3c(-c4ccc(C)cc4)nn(-c4cccc(F)c4)c3c2c1 | inactive: 53% |
| CCOc1ccc(OCC)c(NC(=O)c2cc(S(=O)(=O)N3CCc4ccccc43)cn2C)c1 | inactive: 72% |
| Cc1ccc(S(=O)(=O)NCC(c2ccco2)N2CCOCC2)cc1 (stereo not drawn) | inactive: 94% |
| O=S(=O)(c1cccc(Cl)c1)c1nnn2c1nc(NCc1ccc3c(c1)OCO3)c1sccc12 | inactive: 46% |
| Cc1ccc(S(=O)(=O)CC(=O)Nc2nc3c(C)cc(C)cc3s2)cc1 | inactive: 96% |
| Cc1cccc(C(=O)Nc2nnc(S(=O)(=O)N(C)Cc3ccccc3)s2)c1 | active: 23% |
| COc1ccc(C(=O)c2oc3ccccc3c2NC(=O)c2cc(=O)c3ccc(C)cc3o2)cc1Cl | active: 44% |
| COc1ccc(-c2noc(CNC(=O)c3ccccc3Br)n2)cc1 | inactive: 51% |
| CCOc1ccc(-c2cccc(NS(=O)(=O)c3ccc(F)cc3F)c2)nn1 | inactive: 77% |
| CCn1c(SCC(=O)OC2CCCCC2)nnc1-c1ccc(OC)cc1 | inactive: 100% |
| COc1cccc(NC(=O)c2cccc3c(=O)c4c([nH]c23)CCCC4)c1 | inactive: 57% |
| CCCOc1ccc(C2c3c(-c4ccccc4O)n[nH]c3C(=O)N2CCc2ccccc2)cc1OCC (stereo not drawn) | inactive: 53% |
| Cc1ccc2oc(=O)c3cc(C(=O)NCCCOC(C)C)sc3c2c1 | inactive: 92% |
| CCOC(=O)CSc1nc(-c2ccc(OCC)cc2)cc(C(F)(F)F)c1C#N | inactive: 67% |
| CCN1C(=C(C#N)C#N)C=Cc2cc(C)ccc21 | inactive: 70% |
| CCc1nnc(NC(=O)c2cc(=O)c3cc(C)ccc3o2)s1 | inactive: 79% |
| COc1ccccc1CNC(=O)C(=O)NCC(c1cccs1)S(=O)(=O)c1ccccc1 (stereo not drawn) | inactive: 123% |
| CC(=O)c1ccc(N2CCN(S(=O)(=O)c3cc4[nH]c(=O)c(=O)[nH]c4cc3C)CC2)cc1 | inactive: 93% |
| Cc1ccc(C)c(N2CCN(C(=O)Cn3cnc4onc(-c5ccc(F)cc5)c4c3=O)CC2)c1 | inactive: 83% |
| O=C(CCCCn1c(=O)c2ccccc2n(Cc2cccc(F)c2)c1=O)NCCc1ccccc1 | inactive: 94% |

| Compound | survival |
| --- | --- |
| Cc1ccc(C)c(NC(=O)CN2C(=O)CCc3cc(S(=O)(=O)N4CCCCC4)ccc32)c1 | inactive: 49% |
| CC(=O)N1CCC(N(Cc2ccc(C)o2)C(=O)Nc2cccc(C(F)(F)F)c2)CC1 | inactive: 91% |
| Cc1ccc2c(c1)-c1nc(-c3ccc4c(c3)NC(=O)CO4)cc(-c3ccccc3)c1CO2 | inactive: 95% |
| COc1ccc(NC(=O)Nc2cc(-c3cn4cccnc4n3)ccc2C)cc1 | inactive: 86% |
| O=C(NC1CCN(Cc2ccccc2)CC1)c1ccc(Cn2c(=O)c3ccccc3n(Cc3ccc(Cl)cc3)c2=O)cc1 | inactive: 83% |
| CC(=O)N1CCc2c(sc3c2c(=O)n(-c2ccccc2)c(=O)n3CC(=O)c2ccccc2)C1 | inactive: 95% |
| CC(=O)N1CCc2cc(S(=O)(=O)NC(Cc3ccccc3)C(=O)NCc3ccccc3)ccc21 (stereo not drawn) | inactive: 79% |
| CC(=O)Nc1ccc(NC(=O)c2ccc3c(c2)N(Cc2cccc(Cl)c2)C(=O)c2ccccc2S3=O)cc1 (stereo not drawn) | inactive: 93% |
| Cc1cccc(C(=O)Nc2cc3c(cc2C)n(C)c(=O)n3C)c1 | inactive: 68% |
| CCC(=O)N1CCc2cc(Br)cc(S(=O)(=O)NCCc3cccc(C)c3)c21 | inactive: 102% |
| CCC(=O)NCC1(c2ccccc2)CCCC1 | inactive: 103% |
| O=C(c1ccccc1)N1CCN(S(=O)(=O)c2ccccc2)CC1 | inactive: 68% |
| O=C(Nc1sc2c(c1C(=O)NCc1ccco1)CCCC2)c1cc(=O)c2cc(Cl)ccc2o1 | active: 38% |
| Cc1cc(C)c2nc(C)cc(Nc3cccc(C(=O)O)c3)c2c1 | inactive: 70% |
| CCOc1cc(C(=O)Nc2cc3c(cc2N2CCCC2)n(C)c(=O)c(=O)n3C)cc(OCC)c1OCC | inactive: 74% |
| Cc1nnc(N2CCN(C(=O)NCCC(C)C)CC2)c2nn(-c3ccc(Cl)cc3)c(C)c12 | inactive: 94% |
| CCc1ccc(S(=O)(=O)Nc2cccc(-c3ccc(N4CCCCC4)nn3)c2)s1 | inactive: 84% |
| O=C1C(c2ccc(F)cc2)N(CCc2ccc(Cl)cc2)C(=O)CN1C1CCCCC1 (stereo not drawn) | inactive: 84% |
| COc1ccc(NC(=O)C2CCCN(S(=O)(=O)c3c(C)[nH]c(=O)[nH]c3=O)C2)cc1OC (stereo not drawn) | inactive: 138% |
| CCN1CCN(c2csc3ccc(Br)cc3c2=O)CC1 | inactive: 78% |
| CCn1c(=O)c2cc(C(=O)NCc3cc(OC)ccc3OC)sc2c2ccccc21 | active: 54% |
| Cc1ccc(NC(=O)C2CCCN(c3ncnc4c3nc3n4CCCCC3)C2)c(Br)c1 (stereo not drawn) | inactive: 87% |

| Compound | survival |
| --- | --- |
| CCCCCn1cnc2c1c(=O)[nH]c(=O)n2C | inactive: 95% |
| O=C(CSc1ncnc2c1cnn2-c1ccccc1)c1ccccc1 | inactive: 78% |
| COc1ccc(NC(=O)c2oc3ccccc3c2NC(=O)c2cc(=O)c3cc(Cl)ccc3o2)cc1 | inactive: 54% |
| COc1ccc(Cl)cc1NCc1nnc2n1CCCCC2 | active: 8% |
| COC(=O)c1c(NC(=O)c2ccc(OC)cc2OC)sc2c1CCCCC2 | inactive: 47% |
| COc1ccc(CC(C)NS(=O)(=O)c2ccc3c(c2)CCN3S(C)(=O)=O)cc1OC (stereo not drawn) | inactive: 124% |
| COc1ccc2[nH]c3c(c2c1)CCN(C(=O)CCC1CCCC1)C3c1ccc(F)cc1 (stereo not drawn) | inactive: 64% |
| O=C(CC1N=C2c3ccccc3N=C(SCc3ccc(F)cc3)N2C1=O)NCCc1ccccc1 (stereo not drawn) | inactive: 85% |
| Cc1cccc(Cn2c(-c3ccccc3)nc3ccccc32)c1 | active: -2% |
| O=C(CSc1nccn1-c1ccc(F)cc1)Nc1nc2ccccc2s1 | inactive: 69% |
| Cc1ccc(-c2cnc(C3CC3)o2)cc1S(=O)(=O)Nc1cccc(C)c1C | inactive: 82% |
| Cc1ccc(-n2nc3c(=O)n(C(C)C(=O)NCc4ccc(OC(C)C)cc4)nc(C)c3c2C)cc1 (stereo not drawn) | inactive: 67% |
| COc1ccc2c(CNCc3cccs3)c(C(=O)O)n(Cc3ccc(F)cc3)c2c1 | inactive: 73% |
| O=Nc1c(O)n2c3c(cccc13)CCC2 | inactive: 95% |
| CCCCn1c(=O)n(CC2CCC(C(=O)NCCCOC)CC2)c(=O)c2sccc21 (stereo not drawn) | inactive: 83% |
| COc1cc(OC)cc(-c2nc3nc(C)c(CCC(=O)Nc4cc(C)cc(C)c4)c(C)n3n2)c1 | inactive: 69% |
| CC(C)Cn1cc(NC(=O)N2CCN(c3ccc(F)cc3)CC2)c2ccccc2c1=O | inactive: 99% |
| CC(=O)c1ccc(NC(=O)CSC2=Nc3ccccc3N=C(c3ccc(F)cc3)C2)cc1 | inactive: 84% |
| CCC(Cc1ccccc1)NC(=O)Cn1nc(C)n2c(cc3occc32)c1=O (stereo not drawn) | inactive: 74% |
| O=C(NCc1ccc(Cl)cc1)C1CCN(S(=O)(=O)c2cccc3nonc23)CC1 | inactive: 125% |
| CN(C)CC(C)(C)C1OCC2(CO1)COC(C(C)(C)CN(C)C)OC2 (stereo not drawn) | inactive: 94% |
| CCOc1ccc2nc(NC(=O)c3nc(SCc4ccccc4F)ncc3Cl)sc2c1 | inactive: 67% |
